Reference: PubChem BioAssay AID1159614 (National Center for Advancing Translational Sciences (NCATS), 2016)
The whole screen tested about 45,000 compounds, of which about 65 (0.1%) were called active. The call rests on the fitted dose curve; in most records, active means well fitted activation curve with a large enough effect; inconclusive means small, poorly fitted or top-dose-only effect; inactive means no such curve, though single readings can be large or run the other way. The list shows a part of the results.

Molecular target: Galactocerebrosidase (Homo sapiens) (UniProt P54803)
Chain of UniProt P54803 (P54803 whole entry, looked up): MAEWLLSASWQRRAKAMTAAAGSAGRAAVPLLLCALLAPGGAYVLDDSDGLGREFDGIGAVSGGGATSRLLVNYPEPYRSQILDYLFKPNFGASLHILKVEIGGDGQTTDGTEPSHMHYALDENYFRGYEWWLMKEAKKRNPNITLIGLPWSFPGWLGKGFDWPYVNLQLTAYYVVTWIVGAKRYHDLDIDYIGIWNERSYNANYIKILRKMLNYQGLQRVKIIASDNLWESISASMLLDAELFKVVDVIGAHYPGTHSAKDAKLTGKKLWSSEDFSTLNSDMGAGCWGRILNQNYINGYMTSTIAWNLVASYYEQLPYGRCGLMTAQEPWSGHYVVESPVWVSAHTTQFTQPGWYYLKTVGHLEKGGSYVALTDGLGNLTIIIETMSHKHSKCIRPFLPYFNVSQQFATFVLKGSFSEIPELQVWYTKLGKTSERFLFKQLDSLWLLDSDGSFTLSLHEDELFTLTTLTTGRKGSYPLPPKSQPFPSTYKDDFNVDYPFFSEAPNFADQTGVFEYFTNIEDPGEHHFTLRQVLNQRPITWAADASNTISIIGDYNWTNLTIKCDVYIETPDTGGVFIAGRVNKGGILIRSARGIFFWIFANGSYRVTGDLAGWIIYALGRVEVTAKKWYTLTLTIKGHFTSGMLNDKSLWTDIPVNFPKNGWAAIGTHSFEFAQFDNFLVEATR
Test: A Novel Cell-Based Assay to Identify Small Molecules for B -Galactocerebrosidase; further: 0% is about no effect; nearly all actives have a fitted effect of over 65% in size
Settings: 145M-Twi-hGALC-G270D cells (Twitcher mouse brain line with human GALC G270D), HMU-beta-Gal fluorescence, 48 h; series mostly up to 57.5 µM; activation: at the top concentration
Source text: Lysosomal storage diseases (LSDs) are caused by genetic mutations in genes encoding proteins important for normal lysosomal function. Globoid cell leukodystrophy (GLD), mostly known as Krabbe disease, is a prototype of the neurological LSDs caused by deficiency of beta-galactocerebrosidase (GALC). In brain specimens of GLD patients, psychosine levels are substantially elevated. At elevated concentrations, psychosine becomes cytotoxic to neuronal cells, particularly to oligodendrocytes (OLG), neural cells responsible for myelin formation. Therefore, the biochemical disturbances in GLD are manifested by different degrees of brain demyelination resulting in a broad spectrum of neurological manifestations. Most of the FDA-approved therapies are based on enzyme replacement therapeutic (ERT) agents, which treat non-neurological symptoms of Gaucher disease, Fabry disease, few mucopolysaccharidoses and Pompe disease. Unfortunately, in GLD, a primarily neurological LSD, ERT agents, as large molecular weight molecules unable to cross the blood-brain barrier, which makes this an inefficacious therapeutic approach. In GLD, increasing the residual GALC activity just above the critical threshold (~10% of wild type enzymatic activity), the cytotoxic levels of psychosine will be reduced, avoiding the OLGs apoptosis and the subsequent demyelination process. This will translate in disease stabilization and amelioration of GLD patient symptoms.
A cell-based assay in 1,536-well plate format was developed to implement a quantitative high-throughput screening (qHTS) assay using GLD-disease relevant cells to identify small molecules that produce enhancements of the residual enzymatic activity levels of mutants GALC found and prevalent in GLD patients. Compounds that are active may therefore have some therapeutic application for GLD. After the treatment of live cells for a determined period, using a fluorescent GALC specific substrate, the mutant residual GALC activity is measured. This cell-based qTHS assay was used to screen part of the MLPCN library for small molecule able to increase the mutant GALC enzymatic activity. In this assay, increased fluorescent signal corresponds to enhanced levels of mutant GALC residual enzymatic activity. Activation is the desired outcome for this assay.
NIH Chemical Genomics Center [NCGC]
NIH Molecular Libraries Probe Centers Network [MLPCN]
Assay Submitter (PI): Gustavo Maegawa MD,PhD, University of Florida, Gainesville, FL
2)#Two cell lines were established for the assay: 145M-Twi-hGALC-G270D (brain-derived Twitcher cell line stably expressing human GALC-G270D) and 145M-Twi-hGALC-WT (same 145M-Twi stably expressing human GALC wild type). The Twitcher is the murine C57B/6 model for GLD with naturally occurring homozygous nonsense GALC mutation. The 145M-Twi cell line was established at Maegawa lab (Ribbens J et al 2014).
a.#Media: DMEM/F12 (1:1) with 10% fetal bovine-serum (FBS) with penicillin/streptomycin (PS-1X - 100 I.U./mL of penicillin+100 ug/mL of streptomycin).
b.#The 6-Hexadecanoylamino-4-methylumbelliferyl-b-D-galactoside (HMU-B-gal) substrate was prepared as per Wiederschain et al 1992. Using 20-mL borosilicate tubes, 2.20 mg of HMU-b-Gal was added in each tube to prepare substrate-film with a final air-nitrogen stream evaporation to remove all diluent solvents.
c.#The HMUb-Gal substrate buffer consists of 0.2 M Na2HPO4 (sodium phosphate dibasic)/ 0.1 M Citric Acid with the pH adjusted to 5.2 using HCl. Sodium Azide at 0.02% and Sodium Taurocholate (NaTC) at 1 mg/mL were added to this substrate buffer.
d.#The HMU-b-Gal stopping buffer consist of 0.5 M NaHCO3 (sodium bicarbonate) /0.5 M Na2CO3 (sodium carbonate). […] Triton X-100 at 0.25% was added.
4)#Preparation of HMU-b-Gal substrate tubes
Adding 18.6 mL of the HMUb-Gal substrate buffer to each 20-mL tube (2.20 mg of HMU-b-Gal) will reach a concentration of 0.2 mM. Vortex well the tube until the solution is fully homogenized (clear cloudy solution). […]

activation, inactive:
Cc1cccc(N(CC(=O)NC(C)c2ccccc2)S(=O)(=O)c2ccccc2)c1C (configuration not stated) 0.143%
Cc1ccc(-c2nn3c(C)nnc3c3ccccc23)cc1S(=O)(=O)NCCO -16.2%
CC(=O)Nc1ccc(S(=O)(=O)NCC2CCC(C(=O)NCCCOC(C)C)CC2)cc1 (configuration not stated) -4.18%
CCOc1cc(C(=O)OCc2cc(=O)n3c(C)csc3n2)cc(OCC)c1OCC -6.92%
O=C(c1ccccc1)N1CCc2cc(CNS(=O)(=O)c3ccccc3Cl)ccc21 -2.64%
CCOC(=O)c1ccc(NC(=O)c2noc3c2CCCC3)cc1 -11.2%
Cn1cc(CCCC(=O)NCc2ccc(F)cc2)c2ccccc21 -10.6%
CCOc1ccc(-c2cc3nc(C4CCN(C(=O)OC(C)(C)C)CC4)c(C(=O)Nc4cccc(Cl)c4C)cn3n2)cc1 -5.51%
O=C1NC(NS(=O)(=O)c2ccccc2)(C(F)(F)F)C(=O)N1CCc1ccccc1 (configuration not stated) 16.7%
Brc1ccc(-c2cn3cc(Cc4ccccc4)sc3n2)cc1 -2.19%
CC1CCN(S(=O)(=O)c2ccc3[nH]ccc3c2)CC1 -10.5%
CC(=O)N1CCCc2cc(S(=O)(=O)N3CCCC(C(=O)Nc4ccc(F)cc4F)C3)ccc21 (configuration not stated) -50.4%
O=S(=O)(NCCc1nnc2ccc(SCc3cccc(Cl)c3)nn12)c1ccccc1 -16.5%
Cc1cc(N2CCN(C)CC2)nc2ccc(NC(=O)Nc3ccc(F)cc3)cc12 -9.06%
COc1ccc(Cn2c(CNC(=O)Cc3ccc(OC)c(OC)c3)nc3cccnc32)cc1 0.978%
O=C(CCC(=O)N1CCOc2ccccc21)NCc1cccs1 -6.85%
CC(NCCC(c1ccccc1)c1ccccc1)c1ccccc1 (configuration not stated) -4.18%
CCN(c1ccccc1)c1ncnc2c1cnn2-c1ccc(OC)cc1 -14.3%
Cc1ccc2[nH]c3c(=O)n(CC(=O)N4CCN(c5ccccc5F)CC4)ncc3c2c1 -5.47%
COc1cccc(CC(=O)Nc2c(C(=O)N3CCN(c4ccccc4)CC3)oc3ccccc23)c1 -11.5%
Cc1ccc(Cn2c(SCc3ccc(C(=O)O)cc3)nc3cccnc32)cc1 -8.24%
COc1ccc(C(=O)N(Cc2ccco2)Cc2ccccc2F)cc1Cl -1.77%
O=C(Cn1c(=O)n(Cc2ccco2)c(=O)c2sc3ccccc3c21)Nc1ccc(F)cc1F -16.1%
O=C(NCC(c1ccco1)S(=O)(=O)c1ccc(Cl)cc1)c1ccc(C(F)(F)F)cc1 (configuration not stated) -8.46%
COc1ccc(-c2cc(C(F)(F)F)c(C#N)c(SCC(=O)Nc3cccc(C)c3)n2)cc1 -3.85%
CCC(C)n1c(=O)c2sccc2n2c(CCCC(=O)Nc3ccc(F)cc3)nnc12 (configuration not stated) -3.58%
CSc1ncc(Cl)c(C(=O)Nc2c(C(=O)c3ccc(C)cc3)oc3ccccc23)n1 -12.2%
CCN(CCCNC(=O)CN1N=C(c2ccccc2)CCC1=O)c1cccc(C)c1 -13.7%
CCOc1ccc(CCNC(=O)c2ccc3nc(N4CCC(C)CC4)sc3c2)cc1OCC -3.04%
COc1ccc(NC(=O)c2ccco2)cc1NC(=O)c1cccc(C)c1OC -1.35%
Cc1ccccc1-n1c(SCC(=O)c2ccccc2)nnc1-c1ccc(F)cc1 -2.5%
Cc1ccc(SCC(=O)Nc2ccc(O)c(-c3nc4cc(C)ccc4o3)c2)cc1 -18.2%
Cc1ccc(NC(=O)NC(C)c2c(-n3cccc3)sc(C)c2C)c(C)c1 (configuration not stated) 3.64%
COc1ccc(Cn2c(CCC(=O)Nc3cc(C)cc(C)c3)nc3cccnc32)cc1 -18.8%
Cc1ccc(CNC(=O)CCCCCn2c(=O)c3sccc3n(CC(=O)C(C)(C)C)c2=O)cc1 -7.9%
Cc1ccc2c(CN3CCN(c4ccc(Cl)cc4)CC3)cc(=O)oc2c1 -9.61%
O=C(Nc1ccccc1)C1CCN(S(=O)(=O)c2ccc3c(c2)CCCN3C(=O)C2CCC2)CC1 -18.4%
CCOc1cc(CNC(=O)CSc2n[nH]c(-c3ccccc3)n2)cc(OCC)c1OCC 4.86%
Cc1ccc(NC(=O)CSc2nc(=O)n(Cc3ccncc3)c3c2CCC3)cc1Cl -11.4%
COC(=O)c1cc(NC2(c3ccccc3)C(=O)c3ccccc3C2=O)cc(C(=O)OC)c1 -13.4%
COc1ccc(Nc2ncc(C(=O)Nc3cccc(OC)c3)c3ccccc23)cc1 -6.91%
Cc1ccc(Cl)cc1N(C)C(=O)c1sc2nc3n(c(=O)c2c1C)CCCC3 -11.1%
CCc1ccccc1NC(=O)Cn1c(=O)n(-c2ccccc2)c(=O)c2oc3ccccc3c21 5.55%
CCOc1cc(C#N)c(NC(=O)c2ccc(OC)c(S(=O)(=O)N3CCCCC3)c2)cc1OCC -2.85%
CC(=O)c1ccc(NC(=O)c2cnc(N3CCCC3)nc2C)cc1 -23.3%
COc1ccc(NC(=O)Cn2c(=O)n(Cc3ccco3)c(=O)c3sc4ccccc4c32)cc1OC -16.8%
O=C(Cn1c(=O)n(Cc2ccco2)c(=O)c2ccccc21)Nc1cccc(F)c1 -10.3%
Cc1ccc(-n2c(-c3ccc(Br)cc3)nc3c(cnn3-c3ccccc3)c2=O)cc1 -7.18%
CCN(C(=O)CSc1nc(-c2ccc(C(C)C)cc2)no1)c1ccccc1 -6.38%
O=C(Nc1nnc(S(=O)(=O)N2CCCc3ccccc32)s1)c1ccc(Cl)cc1 -3.67%
COc1ccc2c(c1)CC(C(=O)Nc1ccc(Br)c(C)c1)CO2 (configuration not stated) -9.2%
O=C(C1CCCCC1)N(Cc1cccnc1)c1nc2ccc(Cl)cc2s1 -25.2%
Cc1ccc(N2CCN(C(=O)c3cn(C)c4ccc(S(=O)(=O)N5CCC(C)CC5)cc4c3=O)CC2C)cc1 (configuration not stated) -18.1%
COc1ccccc1N1CCN(S(=O)(=O)c2ccc(-c3coc(C)n3)cc2)CC1 1.1%
Cc1c2cnn(-c3ccccc3)c(=O)c2c(C)n1CC(=O)Nc1ccccc1Br -3.1%
Cc1ccccc1-c1nc(CS(=O)(=O)CC(=O)NCCCN2CCN(C)CC2)c(C)o1 4.32%
Cc1c(N(C)CS(=O)(=O)O)c(=O)n(-c2ccccc2)n1C -9.94%
COc1ccc(C(=O)NCC(=O)OCc2cc(=O)n3nc(C4CCCCC4)sc3n2)cc1 -1.73%
COc1ccc(-n2nnc(-c3nc(-c4ccc5c(c4)OCO5)no3)c2C)cc1Cl -12.5%
COc1ccc(NC(=O)CSc2nncn3c2cc2occc23)c(OC)c1 -19.7%
CC(C)Oc1ccc(C(=O)N2CCC(c3nc4ccccc4s3)CC2)cc1 -21.7%
COc1cc(C(=O)Nc2ccc(-c3nc4cc(C)c(C)cc4o3)cc2)cc(OC)c1OC -9.48%
